PubChem BioAssay AID761 (NMMLSC, 2007)
In all, about 190,000 compounds went through this assay and about 400 (0.21%) were called active. This list was built around the results that the source calls inconclusive (neither active nor inactive); the mix of calls is not that of the screen.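 How the source made its calls: active means percent activity GTP binding at least 20 points away from the 100% baseline, either down as inhibitor or up as activator; inconclusive means compound flagged as likely green fluorescent from well-wide comparison; inactive means the rest.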

target: Cell division control protein 42 homolog (Homo sapiens) (UniProt P60953); assay: wildtype Cdc42 fluorescent GTP binding changes, either direction – biochemical, multiplex bead flow cytometry, Bodipy-GTP, primary screen (AID 761); details: GST-Cdc42 beads, at 10 µM, actives lie on both sides;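 further: median bead fluorescence of bound Bodipy-FL-GTP at 100 nM; 0% = excess unlabeled GTP control and 100% = no compound control; below 100% means less GTP binding so inhibitor and above means activator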
Chain of UniProt P60953 (P60953 whole entry, looked up): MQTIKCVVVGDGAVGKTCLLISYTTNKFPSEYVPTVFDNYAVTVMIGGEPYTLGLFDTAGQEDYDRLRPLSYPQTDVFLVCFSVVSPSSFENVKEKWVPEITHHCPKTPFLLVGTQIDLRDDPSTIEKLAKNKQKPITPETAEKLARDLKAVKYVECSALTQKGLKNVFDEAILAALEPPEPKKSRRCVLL

Row | Structure (SMILES) | percent activity (GTP binding)
1 | COC(=O)c1ccc(Oc2cc(C)nc(SC)n2)cc1 | inconclusive: 108%
2 | COc1ccc(S(=O)(=O)N2CCCC(C(=O)NCCC(C)C)C2)cc1 (stereo not drawn) | inactive: 92%
3 | NC(=S)N=Nc1c(O)[nH]c2ccc(F)cc12 | inactive: 84%
4 | O=C(NCc1ccco1)/C(=C\C=C\c1ccccc1)NC(=O)c1ccccc1Br | inactive: 96%
5 | COc1ccc(-c2cc(C(F)(F)F)n3nc(C(=O)NCCCN4CCOCC4)cc3n2)cc1 | inconclusive: 95%
6 | Cn1c(Sc2ccc(Br)cc2)c(C=O)c2ccccc21 | inconclusive: 94%
7 | Cc1nc(-c2cnn(-c3ccccc3)c2)c2cc(C)oc2n1 | active: 70%
8 | CC1(C)C([N+](=O)[O-])C(c2ccccc2O)NC(c2ccccc2O)C1[N+](=O)[O-] (stereo not drawn) | inactive: 95%
9 | COc1ccc(/C=C(/C#N)C(=O)Nc2cccc([N+](=O)[O-])c2)cc1C(=O)O | inconclusive: 91%
10 | O=C(C1CCC(CNc2nc(=S)[nH]c3ccccc23)CC1)N1CCN(c2ccc(F)cc2)CC1 (stereo not drawn) | inconclusive: 83%
11 | COc1cc(/C=N/NC(=O)CCN2CCN(c3ccccc3)CC2)cc(OC)c1OC | inactive: 87%
12 | CC1=C(C(=O)OC(C)C)C(c2cccs2)n2ncnc2N1 (stereo not drawn) | inconclusive: 101%
13 | Cc1ccc(C(=O)N2c3ccccc3CC2C)o1 (stereo not drawn) | inconclusive: 91%
14 | O=C(NCc1ccc(F)cc1)C(c1ccccc1)N(CC1CCCO1)C(=O)Cn1nnc2ccccc21 (stereo not drawn) | inconclusive: 760%
15 | CC(=O)Oc1ccc(-c2cccc(C(=O)N(C)c3ccc(O)cc3)c2)cc1 | inactive: 97%
16 | O=C(O)CCCCCNS(=O)(=O)c1ccc(Cl)cc1 | inconclusive: 100%
17 | COc1ccc(C(=O)NNC(=S)NC(=O)c2cc(-c3ccccc3)nc3ccccc23)cc1 | inconclusive: 91%
18 | c1ccc(CSc2ccc3nnc(-c4cccnc4)n3n2)cc1 | inconclusive: 92%
19 | COc1ccc(/C=C(/NC(=O)/C=C/c2ccccc2)C(=O)N2CCOCC2)cc1 | inconclusive: 104%
20 | COc1cccc(CNc2ccccc2O)c1OCc1ccccc1F | inactive: 94%

Row | Structure (SMILES) | percent activity (GTP binding)
21 | CC(=O)N1CCN(c2ccccc2NC(=O)c2ccc(-c3cccc([N+](=O)[O-])c3)o2)CC1 | inconclusive: 85%
22 | Cc1cc2nc(-c3ccc(SCc4ccccc4C#N)nc3)[nH]c2cc1C | inconclusive: 88%
23 | O=C(NC1CCCC1)c1cc(Cl)ccc1[N+](=O)[O-] | inconclusive: 103%
24 | Cc1ccc(NC(=O)CN(C)CC(=O)Nc2cccc(F)c2)cc1S(=O)(=O)N1CCCCCC1 | inconclusive: 111%
25 | CCOC(=O)c1ccc(Nc2nc(C(=O)OCC)nc3ccccc23)cc1 | active: 69%
26 | N#CC1=C(N)OC2=C(C(=O)CCC2)C1c1ccsc1 (stereo not drawn) | inconclusive: 105%
27 | CC1(C)CC(=O)C(C=NCCN2CCOCC2)=C(O)C1 | inconclusive: 110%
28 | COc1cc(S(=O)(=O)N2CCC(C(N)=O)CC2)c(C)cc1C | inactive: 101%
29 | COCCn1c(Cc2ccccc2)nnc1SCC(=O)Nc1cc(C)on1 | inactive: 104%
30 | CCOC(=O)C1=C(CC)Nc2ccccc2N=C1NC(=O)c1ccc(OC)c(S(=O)(=O)N2CCCCC2C)c1 (stereo not drawn) | inconclusive: 92%
31 | Cc1ccc(S(=O)(=O)Cc2ccc(C(=O)N3CCN(c4cc(C)ccc4C)CC3)o2)cc1 | inactive: 81%
32 | c1ccc(CSc2ccc(-c3cccs3)nn2)nc1 | inconclusive: 93%
33 | COC(=O)c1ccc(NC(=S)NNC(=O)c2ccccc2)cc1 | inconclusive: 88%
34 | CCCn1cnc2cc(NCc3cccc(OC)c3O)ccc21 | inconclusive: 94%
35 | Cc1cc(=O)[nH]c(N/N=C/c2ccc(C)o2)n1 | inconclusive: 95%
36 | CC(=O)NCCNC(=O)C1CCCCN1S(=O)(=O)c1ccccc1 (stereo not drawn) | inactive: 98%
37 | CCCSc1nc2c(cnn2-c2ccc(Cl)cc2)c(=O)[nH]1 | inactive: 93%
38 | Cc1cccn2c(CN(C)CC3Cc4ccccc4O3)c(C(=O)N3CCCCC3)nc12 (stereo not drawn) | inactive: 96%
39 | Cc1ccccc1-c1nnn(C/C(N)=N/O)n1 | inactive: 96%
40 | Cn1c(=O)n(C)c2cc(C(=O)c3ccccc3)ccc21 | inconclusive: 106%

Row | Structure (SMILES) | percent activity (GTP binding)
41 | Nc1nn(-c2ccccc2)nc1C(=O)OCc1ccccc1F | inconclusive: 87%
42 | COc1ccc(/C=C/C(=O)Oc2cccc(/C=N/NC(=O)COc3c(C)cccc3C)c2)cc1 | inactive: 102%
43 | Cc1ccc(NC(=O)c2cccc(S(C)(=O)=O)c2)cc1 | inconclusive: 92%
44 | COc1ccc(OC)c(-c2cc(C(=O)N3CCN(c4ncccn4)CC3)c3ccccc3n2)c1 | inconclusive: 97%
45 | CCn1cc(Br)c(C(=O)Nc2ccccc2C(=O)OC)n1 | inconclusive: 93%
46 | CCC(=O)N(c1ccc(C(=O)O)cc1)c1nc(-c2ccc(OC)cc2)c(C)s1 | inconclusive: 90%
47 | Fc1ccc(-n2c(-c3ccc4ccccc4n3)n[nH]c2=S)cc1Cl | inconclusive: 86%
48 | COc1ccc2c(c1)C=C(C(=O)OCc1cccnc1)CO2 | inactive: 93%
49 | O=C(O)c1cc2nc(-c3ccc(F)cc3)cc(C(F)(F)F)n2n1 | inconclusive: 90%
50 | COc1cc(/C=N/NC(=O)CSc2n[nH]c(=O)[nH]c2=O)cc(OC)c1O | inconclusive: 75%
51 | Cc1ccnc(NS(=O)(=O)c2ccc(NC(=O)C3C4C=CC(C4)C3C(=O)O)cc2)n1 (stereo not drawn) | inactive: 93%
52 | Cc1onc(-c2c(F)cccc2Cl)c1C(=O)Nc1cccc(S(=O)(=O)NCc2ccco2)c1 | inactive: 92%
53 | O=C(NC1CC1)C1=C[C@H](c2ccc(C(F)(F)F)cc2)C[C@H](OCc2ccc(CO)cc2)O1 | inconclusive: 93%
54 | CCOC(=O)c1c(NC(=O)CSc2nnc(CNc3ccc(F)cc3)o2)sc(C)c1C | inconclusive: 105%
55 | Cc1ccc2c(c1)c1c(n2CC(O)Cn2nc(C)c(Br)c2C)C(=O)CCC1 (stereo not drawn) | inconclusive: 93%
56 | CCCS(=O)(=O)N1CCC(C(=O)N2CCOCC2)CC1 | inconclusive: 100%
57 | CC1=CC(=O)C=C(C)C1=NOc1ccccc1[N+](=O)[O-] | inactive: 99%
58 | CCN1/C(=C2/SC(=S)NC2=O)Sc2ccccc21 | inconclusive: 89%
